According to paper PMC4336329 (PLoS ONE, 2015):
Among all 310,000 compounds or so, about 2,200 (0.71%) showed an effect of 50% or more. Effects have a minus sign here. The list shows a part of the results.

target: human ether-à-go-go-related gene (hERG) potassium channel (human, UniProt Q12809); test: primary screen, population patch clamp on CHO cells stably expressing hERG
Sequence (Q12809 whole entry, looked up): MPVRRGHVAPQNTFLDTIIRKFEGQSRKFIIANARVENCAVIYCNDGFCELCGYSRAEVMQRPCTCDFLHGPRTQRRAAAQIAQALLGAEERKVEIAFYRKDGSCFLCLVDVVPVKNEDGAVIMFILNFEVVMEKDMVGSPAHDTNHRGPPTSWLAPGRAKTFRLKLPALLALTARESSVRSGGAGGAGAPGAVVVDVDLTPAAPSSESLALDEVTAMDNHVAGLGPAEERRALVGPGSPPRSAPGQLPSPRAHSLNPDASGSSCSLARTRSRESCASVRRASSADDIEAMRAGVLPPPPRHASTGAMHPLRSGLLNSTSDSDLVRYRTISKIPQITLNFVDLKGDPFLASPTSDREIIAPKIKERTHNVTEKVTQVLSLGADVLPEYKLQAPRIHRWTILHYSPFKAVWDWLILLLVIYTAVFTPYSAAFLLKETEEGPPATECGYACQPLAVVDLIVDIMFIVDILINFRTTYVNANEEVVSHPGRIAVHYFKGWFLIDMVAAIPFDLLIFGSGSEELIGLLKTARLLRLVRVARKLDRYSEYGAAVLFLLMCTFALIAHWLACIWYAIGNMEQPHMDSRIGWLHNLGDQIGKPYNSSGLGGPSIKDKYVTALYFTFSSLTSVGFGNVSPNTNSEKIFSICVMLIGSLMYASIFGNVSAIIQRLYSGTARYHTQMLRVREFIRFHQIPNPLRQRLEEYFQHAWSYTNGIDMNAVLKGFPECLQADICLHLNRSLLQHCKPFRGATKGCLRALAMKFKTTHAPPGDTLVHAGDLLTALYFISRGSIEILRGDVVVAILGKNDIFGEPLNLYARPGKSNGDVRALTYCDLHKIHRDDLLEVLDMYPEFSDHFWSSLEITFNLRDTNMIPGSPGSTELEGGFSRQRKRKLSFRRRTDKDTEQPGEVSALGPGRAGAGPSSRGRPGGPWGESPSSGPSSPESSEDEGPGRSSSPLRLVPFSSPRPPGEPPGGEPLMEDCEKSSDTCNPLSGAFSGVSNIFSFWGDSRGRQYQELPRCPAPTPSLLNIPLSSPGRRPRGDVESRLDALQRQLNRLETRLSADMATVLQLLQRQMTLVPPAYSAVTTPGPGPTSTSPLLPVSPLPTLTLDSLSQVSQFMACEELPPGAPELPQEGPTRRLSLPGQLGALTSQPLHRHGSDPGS

SMILES | hERG current change (%, negative = inhibition) at 1uM
O=[N+]([O-])c1ccc(O)c(/C=N/Nc2nn[nH]n2)c1 | 15.4%
O=C(Nc1ccc(F)c(Cl)c1)c1cc(-c2ccco2)on1 | 8.91%
O=S(=O)(c1ccc(-c2ccon2)s1)N1CCOCC1 | 10.6%
CCOc1ccc(-n2c(=O)[nH]cc(C(=O)N3CCc4ccccc43)c2=O)cc1 | 11%
S=c1[nH]nc(NCCCN2CCOCC2)s1 | 11.3%
CC(C)(C)c1cc(N)n(-c2ccc(C(=O)O)cc2)n1 | 17%
COc1cccc(NC(=O)c2ccc(CN3CCc4ccccc4C3)cc2)c1 | 3.46%
Cc1ccc(CC2S/C(=N/N=C/c3ccco3)NC2=O)cc1 (stereo not shown) | 7.27%
CCCS(=O)(=O)c1c(S(=O)(=O)CCC)c2c(N)cccn2c1C(=O)c1ccc(OC)cc1 | 9.6%
Cc1cccc(-c2nc(C#N)c(NCC3CCCO3)o2)c1 (stereo not shown) | 6.99%
CC(=O)c1ccc(NC(=O)C2CCN(S(=O)(=O)c3cccc4nonc34)CC2)cc1 | 4.65%
CC1CCCC(NC(=O)CN2CCN(Cc3ccc(Cl)cc3)C2=O)C1C (stereo not shown) | 4.16%
O=C(CN(C(=O)c1cccc([N+](=O)[O-])c1)C1CCCCC1)Nc1ccc(Cl)c([N+](=O)[O-])c1 | -1.44%
O=C(Nn1cnnc1)c1ccc(Cl)cc1[N+](=O)[O-] | 13.5%
CN(Cc1cccc2ncccc12)C(=O)CC1C(=O)NCCN1Cc1ccc(F)cc1 (stereo not shown) | 9.92%
COC(=O)c1cn(CC(=O)NCc2ccco2)c2ccccc12 | 6.68%
Cc1ccc(S(=O)(=O)NCCc2c[nH]c3ccccc23)cc1 | 15.9%
CCOC(=O)c1c(S(=O)(=O)N2CCCC(C(=O)Nc3ccc(C)cn3)C2)c(C)n(C)c1C (stereo not shown) | 20%
CCOc1ccc2nc(N3CCCC(C(=O)NCC4CCCO4)C3)sc2c1 (stereo not shown) | 0.0745%
CCOC(=O)c1nnn(CC(=O)Nc2cccc(OC)c2)c1C(=O)OCC | 3.45%
Cn1c(=O)cc2c3c(c(N4CCCCC4)ccc31)C(=O)c1ccccc1-2 | 6.23%
O=c1c2ccccc2nc(-c2ccccc2F)n1-c1ccccc1 | 15.5%
CC(C)NC(=O)Cn1cnc2c1c(=O)n(C)c(=O)n2C | 18.6%
Cc1nc2ccccc2n1C1CCN(CC(=O)NCc2ccc(F)cc2)CC1 | -23.3%
Cc1cc(=O)n2nc(N3CCCC3C(=O)NCCCN3CC(C)CC(C)C3)sc2n1 (stereo not shown) | 17.4%
CC1CCCCC12NC(=O)N(CC(=O)Nc1ccc(S(=O)(=O)Nc3ncccn3)cc1)C2=O (stereo not shown) | 10.7%
Oc1[nH]c2ccccc2c1N=Nc1ccccc1F | 0.367%
Cc1cccc(OCCN2C(=O)C(=O)c3cc(C)ccc32)c1 | 2.49%

SMILES | hERG current change (%, negative = inhibition) at 1uM
O=C(NC1CCCCC1)OCCN1CCN(Cc2ccccc2)CCC1=O | -1.5%
CCOC(=O)C(C)Sc1ncc(OC)c(Sc2ccc(Cl)cc2)n1 (stereo not shown) | 5.4%
COC(=O)C1=C(C(=O)OC)[C@@H]2N(Cc3ccccc3)c3ccccc3[C@@]23C[C@@H](C(=O)OC)N(C(=O)NC(C)(C)C)C3=N1 | 8.05%
COc1ccccc1NC(=O)CC1C(=O)Nc2c1c(=O)n(C)c(=O)n2C (stereo not shown) | 12.3%
CNC(=O)Nc1ccccc1NC(=O)NC | 21.2%
Cc1cc(C(=O)Nc2cnn(Cc3ccc(Cl)cc3Cl)c2)no1 | -2.18%
CC1Sc2ccc(C(=O)Nc3ccc(S(=O)(=O)N(C)C)cc3)cc2NC1=O (stereo not shown) | -9.84%
CC(=O)NS(=O)(=O)c1ccc(N=c2ssc3c2-c2ccc(C)cc2NC3(C)C)cc1 | 7.73%
Cc1cccc(NC(=O)C2CCN(S(=O)(=O)c3cccc4cccnc34)CC2)c1 | 8.54%
Cl.Nn1cnnc1N/N=C/c1cccc(Cl)c1Cl | 12.8%
CCC(C)NCCOc1ccc(Br)cc1.O=C(O)C(=O)O (stereo not shown) | -0.813%
CCCc1cc(=O)oc2c(CN3CCN(C)CC3)c(O)ccc12 | -6.26%
O=C1CN=C(c2ccccc2)c2cc(Br)ccc2N1Cc1cc(=O)n2ccccc2n1 | 4.2%
COc1ccc(C(CCN(Cc2ccc(OC)c(OC)c2)C(=O)CCl)c2ccccc2)cc1 (stereo not shown) | 14.9%
CCC1(c2ccccc2)NC(=O)N(CC(=O)Nc2ccc(OC)nc2)C1=O (stereo not shown) | 4.47%
CC(=O)Nc1c(I)c(NC(C)=O)c(I)c(C(=O)[O-])c1I.[Na+] | 13.2%
CCCCn1c(C)cc2cc(O)ccc21 | -2.48%
COc1cc(NC(=O)C2CCN(S(=O)(=O)c3ccc(N4CCCC4=O)cc3)CC2)cc(OC)c1 | 10.7%
CCOc1ccc(OCC)c(NC(=O)C(NS(=O)(=O)c2ccc3c(c2)oc(=O)n3C)C(C)C)c1 (stereo not shown) | 8.84%
CCC(C)Sc1ccc(-c2nc3ccc(C)cn3c2NC2CCCCC2)cc1.O=C(O)C(F)(F)F (stereo not shown) | 0.404%
CCOc1ccc(NC(=O)C2CCCN(S(=O)(=O)c3ccc4c(c3)CCCN4C(C)=O)C2)cc1 (stereo not shown) | 3.82%
Cc1ccc(-n2ncc3c2CC(C)(C)CC3NC(=O)CCc2ccc(=O)[nH]n2)cc1 (stereo not shown) | 15%
Cc1nnc(NC(=O)CSc2nccn2Cc2ccc(F)cc2)s1 | 4.39%
CCCn1c(SCC(=O)Nc2nccs2)nnc1-c1cccnc1 | -5.67%
Cc1ccccc1C(=O)NNC(=O)c1cccc(Br)c1 | 11.2%
C=CCN1C(=O)c2ccc(C(=O)N(CCC)CC(=O)Nc3ccccc3C)cc2C1=O | 15.8%
Cc1ccc(OCc2nnc(SCc3nc4ccccc4[nH]3)n2Cc2ccco2)cc1 | 1.25%
